Measurements as given in PubChem BioAssay AID1345082 (National Center for Advancing Translational Sciences (NCATS), 2018).
About 4,000 (4.3%) of roughly 94,000 compounds were called active. Inconclusive means that the source gave no clear call. Such entries were picked first, then a sample of the others. Calls come from the whole dose curve; as a rule, active = well fitted inhibition curve with a large enough effect; inconclusive = small, poorly fitted or top-dose-only effect; inactive = no such curve, though single readings can be large or run the other way. Where the call is inconclusive, the potency comes from a doubtful curve fit.

Assay: Cytotoxic Profiling in NIH 3T3 Cell Line of Diverse Libraries Using Quantitative High-Throughput Screening; note: nearly all actives have a fitted effect of over 55% in size
Conditions: NIH 3T3 viability, CellTiter-Glo ATP luminescence, 48-72 h; series mostly up to 96.7 µM
Method in brief: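 NIH 3T3 cells at 400 cells/well received 23 nL of compound by pintool and were incubated 48 or 72 h at 37 °C. Viability was read as ATP-coupled CellTiter-Glo luminescence.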
Potency is the fitted concentration of half-maximal effect; tags give direction and shape of the fitted curve.

SMILES | Potency
O=C(c1cc(-c2ccccc2)c2nncn2n1)N1CCOCC1 | inactive
CNC(=O)c1cc(C2CC2)nc2onc(C3CCCN3C(=O)NC(C)(C)c3ccccc3)c12 (configuration not stated) | inactive
O=C1CO[C@H]2CCN(Cc3ccc(O)cc3)CC[C@@H]2N1c1ccccc1 | inconclusive: 100 µM [inhibitor, single point]
O=[S+]([O-])(NC1CCCN(Cc2ccc(-c3cncnc3)cc2)C1)c1cccs1 (configuration not stated) | inconclusive: 31.6 µM [inhibitor, full curve, poor fit]
COc1ccc(F)cc1-c1cccc(C(=O)NCC(=O)N2CCN(C(C)=O)CC2)c1 | inactive
CC(=O)N1CCCC(C(=O)N2CCC(c3nc4ncccc4[nH]3)C2)C1 (configuration not stated) | inactive
O=C(NCCc1ccc(Cl)cc1)C1CN(C2CCCC2)C(=O)N1 (configuration not stated) | inconclusive: 89.1 µM [inhibitor, partial curve, poor fit]
C1=C(c2cc(-c3cccc4cn[nH]c34)cn3cncc23)CCOC1 | inconclusive: 10 µM [inhibitor, partial curve, poor fit]
O=C1N(Cc2cccnc2)C(=O)C2(CCN(Cc3cc(F)ccc3F)CC2)N1CCc1ccccc1 | inconclusive: 70.8 µM [inhibitor, single point]
O=c1c2c3c(nn2ccn1Cc1ccc(F)cc1F)CCCC3 | inconclusive: 50.1 µM [inhibitor, partial curve, poor fit]
Cc1nnc(-c2cc(-c3ccccc3)ccn2)n1CCc1ccccc1 | inconclusive: 100 µM [inhibitor, partial curve, poor fit]
CNC(=O)[C@@H]1C[C@@H](O)CN1C1CCN(C(=O)C2CCCC2)CC1 | inactive
O=C(C1CC1)N1CC[C@H](c2nc3ccccc3o2)C1 | inconclusive: 35.5 µM [inhibitor, full curve, poor fit]
CS(=O)(=O)N1CCC(C2CCN(C(=O)c3ccc4[nH]ccc4c3)C2)CC1 (configuration not stated) | inactive
Cn1nccc1-c1cccc(CCOc2cnc3c(ccn3CC(=O)O)c2)c1 | active: 44.7 µM
COc1ccc(CN2CC3(C2)NC(=O)c2ccccc2O3)cc1 | inconclusive: 100 µM [inhibitor, partial curve, poor fit]
COCCO[C@H]1C(=O)N(C2CCN(S(=O)(=O)c3ccccc3)CC2)[C@H]1c1ccncc1 | inactive
CC(C)(C)c1csc(NC(=O)Cn2nc3c(cc2=O)CCCC3)n1 | inconclusive: 70.8 µM [inhibitor, single point]
CC(C)c1nc2c(c(-c3ccc(O)cc3)n1)CN(C(=O)Nc1ccccc1)CC2 | inconclusive: 44.7 µM [inhibitor, partial curve, poor fit]
Cc1ccc(CN2C[C@H]3CN(C(=O)c4ccc5c(c4)OCO5)CCN3C2=O)cc1 | inconclusive: 79.4 µM [inhibitor, partial curve, poor fit]
CCn1c2c(c(=O)n1Cc1ccccc1)CCN(C(=O)CCc1ccccn1)C2 | inconclusive: 56.2 µM [inhibitor, partial curve, poor fit]

SMILES | Potency
CS(=O)(=O)N1CCN(S(=O)(=O)c2ccccc2)C[C@H]1C(=O)N[C@@H](CC1CCCCC1)C(N)=O | inconclusive: 89.1 µM [inhibitor, single point]
C=CCn1cc(CN(Cc2ccco2)Cc2cccs2)c(C)n1 | inconclusive: 50.1 µM [inhibitor, partial curve, poor fit]
CCCN1C(=O)Cc2cc(C(=O)NCc3ccccc3C(F)(F)F)ccc21 | inconclusive: 70.8 µM [inhibitor, single point]
COc1ccc(Cn2c3c(c(=O)n2Cc2ccccc2)CCN(C(=O)c2cccc(N(C)C)c2)C3)cc1 | inconclusive: 6.31 µM [inhibitor, full curve, poor fit]
CC(C)c1nnc(NC(=O)C2CC(=O)N(c3n[nH]c4cccc(F)c34)C2)s1 (configuration not stated) | inconclusive: 35.5 µM [inhibitor, single point]
O=C(NCCC1CCN(C(=O)Nc2cccc(F)c2)CC1)c1cccs1 | inactive
COc1ccccc1-c1ccnc(-c2nnc(C)n2Cc2ccccc2)c1 | inconclusive: 44.7 µM [inhibitor, partial curve, poor fit]
Cc1ccc(-c2noc([C@@H]3Cc4nc[nH]c4CN3C(=O)c3ccccc3)n2)cc1 | inactive
COCC(=O)NC1CCN(c2ccc3nnc(C)n3n2)CC1 | inactive
COCCCNc1cc(-c2cccs2)nc2c(C)noc12 | inconclusive: 50.1 µM [inhibitor, partial curve, poor fit]
O=[S+]([O-])(Nc1nncs1)c1ccc2c(c1)OCCN(Cc1ccsc1)C2 | inconclusive: 22.4 µM [inhibitor, full curve, poor fit]
O=C1CCN(C(=O)COc2ccc(F)cc2)CCCC(c2nc(-c3ccccc3)no2)CCN1 (configuration not stated) | inconclusive: 44.7 µM [inhibitor, partial curve, poor fit]
O=[S+]([O-])(Nc1cccnc1)c1ccc2c(c1)OCCN(Cc1cncnc1)C2 | inconclusive: 63.1 µM [inhibitor, partial curve, poor fit]
CCN1c2cc(C(=O)NCc3ccc(F)cc3F)ccc2C(=O)N2CCCCCC21 (configuration not stated) | inconclusive: 44.7 µM [inhibitor, partial curve, poor fit]
O=C(NC1CCOCC1)c1ccnc(-c2nnc3ccc(Nc4ccccc4)nn23)c1 | inconclusive: 89.1 µM [inhibitor, partial curve, poor fit]
CC1CN(C(=O)c2csc(-c3ccc(C(F)(F)F)cc3)n2)CCCO1 (configuration not stated) | inconclusive: 50.1 µM [inhibitor, partial curve, poor fit]
c1ccc(Cc2noc(-c3nc(-c4ccc5c(c4)OCO5)no3)n2)cc1 | inactive
Cc1ccc(-n2nc(C)c([C@H]3C=C[C@@H](OC(=O)Nc4ccc(C(C)C)cc4)C3)c2C)cc1Cl | inconclusive: 28.2 µM [inhibitor, full curve, poor fit]
COc1ccccc1CN(C)Cc1cccc(C(F)(F)F)c1 | inactive
COC(=O)c1ccc2nc(CO[C@H]3CN(Cc4ccc5c(c4)OCO5)C[C@H]3F)[nH]c2c1 | inconclusive: 56.2 µM [inhibitor, partial curve, poor fit]
O=C1COc2ccc(OCC3CC3)nc2CN1Cc1ccc(C(F)(F)F)cc1 | active: 79.4 µM

SMILES | Potency
Cc1cc(C)c(CNC(=O)c2cc(-c3ccccc3F)cc3c2OCCN3C(C)C)c(=O)[nH]1 | inconclusive: 44.7 µM [inhibitor, partial curve, poor fit]
CCOc1ccccc1C(=O)N1CCc2[nH]nc(-c3ccc(F)c(F)c3)c2C1 | inconclusive: 39.8 µM [inhibitor, partial curve]
Cc1ccc(C(=O)N2CCc3nc(C(C)C)nc(-c4ccc(Cl)cc4)c3CC2)cc1 | inconclusive: 70.8 µM [inhibitor, single point]
Cn1nc(-c2nncn2CC2CC2)c2c1CCN(C(=O)CCC(=O)N1CC(=O)Nc3ccccc31)C2 | inactive
COc1cc(CNc2nc(-c3c(C)noc3C)cc3cc(C)oc23)cc(OC)c1 | active: 25.1 µM
Cc1ccc(NC(=O)CN2C(=O)NC(c3ccccc3Cl)C3=C2COC3=O)cc1C (configuration not stated) | inconclusive: 50.1 µM [inhibitor, partial curve, poor fit]
COc1ccc(-c2cc(N3CCCN(C(=O)Cc4c[nH]c5ccccc45)CC3)n[nH]2)cc1 | inconclusive: 44.7 µM [inhibitor, partial curve, poor fit]
Cc1nn(C)c(C)c1CCC(=O)NCCn1c(C)cnc1C1CC1 | inactive
CC(C)(O)CN1CCC(=O)N(C/C=C/c2ccccc2)CCc2ccccc21 | inactive
COc1ccccc1-c1nnc2ccc(C(=O)N3CCN(C(C)=O)CC3)cn12 | inactive
COc1ccccc1-c1ccc(C(=O)N2CCC(C(=O)NCCc3ccc(F)cc3)CC2)cc1 | inconclusive: 50.1 µM [inhibitor, partial curve, poor fit]
CCc1[nH]c2ccc(CNC(=O)C3CC(=O)Nc4ccccc43)cc2c1C (configuration not stated) | inconclusive: 50.1 µM [inhibitor, partial curve, poor fit]
C[S+](=O)([O-])N1CCc2nc(-c3ccccc3)nc(-c3ccc(Cl)cc3)c2C1 | inactive
COc1ccc(CC(=O)NC2CCN(c3cc(-c4ccc(Cl)cc4)[nH]n3)C2)cc1 (configuration not stated) | inconclusive: 11.2 µM [inhibitor, full curve, poor fit]
O=C(NCc1cccs1)[C@@H]1C[C@@H](O)[C@H](O)[C@@H]2NC(=S)N(c3ccc(OC(F)(F)F)cc3)[C@@H]21 | inconclusive: 50.1 µM [inhibitor, partial curve, poor fit]
Cc1nonc1OCCNC(=O)c1ccc2nc(Cc3ccccc3F)oc2c1 | inconclusive: 79.4 µM [inhibitor, partial curve, poor fit]
COCCNC(=O)c1cn2cc(-c3cccc(OC)c3)sc2n1 | inconclusive: 56.2 µM [inhibitor, partial curve, poor fit]
COc1ccc(C(=O)N[C@@H]2CN(C(=O)Nc3ccccc3)CCC[C@H]2O)cc1 | inconclusive: 126 µM [inhibitor, single point]
Cc1noc2c(-c3cccc(CO)c3)cc(-c3ccccc3)nc12 | inconclusive: 56.2 µM [inhibitor, partial curve, poor fit]
COc1ccc(CNC(=O)CC[C@]23CC[C@](C)(O)C[C@H]2C(C)(C)C[C@@H]3NC(=O)c2cccc(F)c2)cc1 | inconclusive: 79.4 µM [inhibitor, partial curve, poor fit]
